T1: insulin degrading enzyme (IDE) (Rattus norvegicus, UniProt P35559)
T1 sequence (P35559 42-1019 limits assumed): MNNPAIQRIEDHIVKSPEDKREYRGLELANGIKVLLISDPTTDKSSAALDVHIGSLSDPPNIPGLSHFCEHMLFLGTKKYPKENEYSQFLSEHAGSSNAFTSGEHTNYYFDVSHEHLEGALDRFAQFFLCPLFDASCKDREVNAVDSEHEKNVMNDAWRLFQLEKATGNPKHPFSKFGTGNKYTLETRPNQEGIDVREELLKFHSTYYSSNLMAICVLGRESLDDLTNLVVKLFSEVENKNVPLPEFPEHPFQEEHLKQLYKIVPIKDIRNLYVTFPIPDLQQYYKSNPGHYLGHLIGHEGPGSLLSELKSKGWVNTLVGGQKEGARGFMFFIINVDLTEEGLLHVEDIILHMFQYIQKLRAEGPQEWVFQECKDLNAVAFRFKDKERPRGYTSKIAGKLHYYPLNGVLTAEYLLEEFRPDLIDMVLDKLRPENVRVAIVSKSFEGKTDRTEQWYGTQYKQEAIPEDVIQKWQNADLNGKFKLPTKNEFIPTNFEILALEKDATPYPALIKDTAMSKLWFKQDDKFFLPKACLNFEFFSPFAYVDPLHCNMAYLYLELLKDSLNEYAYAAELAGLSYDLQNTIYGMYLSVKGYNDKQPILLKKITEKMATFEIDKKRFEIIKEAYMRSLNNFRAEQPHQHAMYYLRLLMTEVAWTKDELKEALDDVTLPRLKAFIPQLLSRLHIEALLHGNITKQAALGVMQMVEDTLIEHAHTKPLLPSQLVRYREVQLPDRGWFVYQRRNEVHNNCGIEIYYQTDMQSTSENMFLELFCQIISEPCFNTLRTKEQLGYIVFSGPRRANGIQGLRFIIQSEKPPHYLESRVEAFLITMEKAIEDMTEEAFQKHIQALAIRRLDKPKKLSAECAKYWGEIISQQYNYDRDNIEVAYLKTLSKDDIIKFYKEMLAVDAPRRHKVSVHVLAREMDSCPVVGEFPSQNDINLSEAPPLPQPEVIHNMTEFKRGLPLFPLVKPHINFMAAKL

T2: human NPRA (hNPRA) (Homo sapiens, UniProt P16066)
T2 construct: expressed in transfected cells
T2 sequence (P16066 33-1061): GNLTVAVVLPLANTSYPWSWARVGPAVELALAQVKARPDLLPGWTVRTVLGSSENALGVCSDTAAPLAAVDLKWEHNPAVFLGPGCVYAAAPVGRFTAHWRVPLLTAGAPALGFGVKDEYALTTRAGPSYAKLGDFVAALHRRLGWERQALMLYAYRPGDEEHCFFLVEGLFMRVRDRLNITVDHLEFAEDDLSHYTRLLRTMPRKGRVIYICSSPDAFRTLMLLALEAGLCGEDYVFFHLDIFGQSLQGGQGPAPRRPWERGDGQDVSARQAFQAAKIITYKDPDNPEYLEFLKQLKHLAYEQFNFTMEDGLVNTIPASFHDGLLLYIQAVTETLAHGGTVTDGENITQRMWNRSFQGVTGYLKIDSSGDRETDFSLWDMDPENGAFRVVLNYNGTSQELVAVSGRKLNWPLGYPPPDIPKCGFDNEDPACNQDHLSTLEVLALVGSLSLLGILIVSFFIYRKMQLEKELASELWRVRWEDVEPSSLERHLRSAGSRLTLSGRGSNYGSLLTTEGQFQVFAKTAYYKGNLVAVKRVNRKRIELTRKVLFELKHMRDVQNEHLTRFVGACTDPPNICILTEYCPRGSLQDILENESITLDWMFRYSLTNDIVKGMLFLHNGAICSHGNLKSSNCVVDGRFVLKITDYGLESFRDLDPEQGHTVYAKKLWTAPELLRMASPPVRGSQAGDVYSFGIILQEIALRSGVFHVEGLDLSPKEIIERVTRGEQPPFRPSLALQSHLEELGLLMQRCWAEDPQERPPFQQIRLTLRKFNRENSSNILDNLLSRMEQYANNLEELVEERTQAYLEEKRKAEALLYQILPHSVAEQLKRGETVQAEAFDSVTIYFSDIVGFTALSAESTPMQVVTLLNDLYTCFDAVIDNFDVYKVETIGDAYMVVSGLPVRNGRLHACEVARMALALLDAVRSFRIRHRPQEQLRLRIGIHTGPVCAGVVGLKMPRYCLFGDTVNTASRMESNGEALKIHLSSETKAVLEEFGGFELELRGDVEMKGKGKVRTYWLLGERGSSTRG

B1: TPP-12377: CNP engrafted antibody, CDRH3; HC SEQ ID NO 445, LC SEQ ID NO 66 (antibody, listed as Homo sapiens)
heavy: EVQLLESGGGLVQPGGSLRLSCAASGFTFSSYAMSWVRQAPGKGLEWVSAISGSGGSTYYADSVKGRFTISRDNSKNTLYLQMNSLRAEDTAVYYCTSVHQETKKYQSSPYKGANKKGLSKGCFGLKLDRIGSMSGLGCGSGGSGSYSYTYNYEWHVDVWGQGTLVTVSS[in this place human IgG1 constant region]
light: QSVLTQPPSVSGAPGQRVTISCTGSSSNIGAGYDVHWYQQLPGTAPKLLIYGNSNRPSGVPDRFSGSKSGTSASLAITGLQAEDEADYYCQSYDSSLSGVVFGGGTKLTVLGQPKAAPSVTLFPPSSEELQANKATLVCLISDFYPGAVTVAWKADSSPVKAGVETTTPSKQSNNKYAASSYLSLTPEQWKSHRSYSCQVTHEGSTVEKTVAPTECS
modifications: NP engrafted HC
B2: TPP-11156: BNP engrafted antibody with human BNP sequence; HC SEQ ID NO 443, LC SEQ ID NO 66 (antibody, listed as Homo sapiens)
heavy: EVQLLESGGGLVQPGGSLRLSCAASGFTFSSYAMSWVRQAPGKGLEWVSAISGSVVVTSHQAPGGGSGGMVQGSGCFGRKMDRISSSSGLGCKVLRRGEKKKLKSLAYGSTYYADSVKGRFTISRDNSKNTLYLQMNSLRAEDTAVYYCAKLTGAEYFQHWGQGTLVTVSS[in this place human IgG1 constant region]
light: B1 light
modifications: NP engrafted HC
B3: TPP-10847: ANP engrafted antibody, CDRH2; HC SEQ ID NO 75, LC SEQ ID NO 66 (antibody, listed as Homo sapiens)
heavy: EVQLLESGGGLVQPGGSLRLSCAASGFTFSSYAMSWVRQAPGKGLEWVSAISGTSASLAITGPDGGSGGSLRRSSCFGGRMDRIGAQSGLGCNSFRYGSDRFSGSKSGGSTYYADSVKGRFTISRDNSKNTLYLQMNSLRAEDTAVYYCAKLTGAEYFQHWGQGTLVTVSS[in this place human IgG1 constant region]
light: B1 light
modifications: NP engrafted HC
B4: TPP-9902: BNP engrafted antibody with human BNP sequence; HC SEQ ID NO 442, LC SEQ ID NO 66 (antibody, listed as Homo sapiens)
heavy: EVQLLESGGGLVQPGGSLRLSCAASGFTFSSYAMSWVRQAPGKGLEWVSAISGSGGSTYYADSVKGRFTISRDNSKNTLYLQMNSLRAEDTAVYYCTSVHQETKKYQSSPDGGSGGMVQGSGCFGRKMDRISSSSGLGCKVLRRGSYSYTYNYEWHVDVWGQGTLVTVSS[in this place human IgG1 constant region]
light: B1 light
modifications: NP engrafted HC
B5: TPP-10282: ANP engrafted antibody, CDRH2; HC SEQ ID NO 69, LC SEQ ID NO 66 (antibody, listed as Homo sapiens)
heavy: EVQLLESGGGLVQPGGSLRLSCAASGFTFSSYAMSWVRQAPGKGLEWVSAISGSGSGSGSGSGSPDGGSGGSLRRSSCFGGRMDRIGAQSGLGCNSFRYGSYGSGSGSGSGSGSTYYADSVKGRFTISRDNSKNTLYLQMNSLRAEDTAVYYCAKLTGAEYFQHWGQGTLVTVSS[in this place human IgG1 constant region]
light: B1 light
modifications: NP engrafted HC

Assays:
[1] = target: T3, neutral endopeptidase (NEP) (Homo sapiens, UniProt P08473); assay: Sensitivity towards proteolytic degradation by neutral endopeptidase (NEP); assay type: in vitro ADME; conditions: 4 hours incubation with 0.6 μg/ml NEP at 37° C., then activity on the rat receptor cell line
T3 construct: purchased R&D Systems 1182-ZNC
T3 sequence (P08473 52-750 limits assumed): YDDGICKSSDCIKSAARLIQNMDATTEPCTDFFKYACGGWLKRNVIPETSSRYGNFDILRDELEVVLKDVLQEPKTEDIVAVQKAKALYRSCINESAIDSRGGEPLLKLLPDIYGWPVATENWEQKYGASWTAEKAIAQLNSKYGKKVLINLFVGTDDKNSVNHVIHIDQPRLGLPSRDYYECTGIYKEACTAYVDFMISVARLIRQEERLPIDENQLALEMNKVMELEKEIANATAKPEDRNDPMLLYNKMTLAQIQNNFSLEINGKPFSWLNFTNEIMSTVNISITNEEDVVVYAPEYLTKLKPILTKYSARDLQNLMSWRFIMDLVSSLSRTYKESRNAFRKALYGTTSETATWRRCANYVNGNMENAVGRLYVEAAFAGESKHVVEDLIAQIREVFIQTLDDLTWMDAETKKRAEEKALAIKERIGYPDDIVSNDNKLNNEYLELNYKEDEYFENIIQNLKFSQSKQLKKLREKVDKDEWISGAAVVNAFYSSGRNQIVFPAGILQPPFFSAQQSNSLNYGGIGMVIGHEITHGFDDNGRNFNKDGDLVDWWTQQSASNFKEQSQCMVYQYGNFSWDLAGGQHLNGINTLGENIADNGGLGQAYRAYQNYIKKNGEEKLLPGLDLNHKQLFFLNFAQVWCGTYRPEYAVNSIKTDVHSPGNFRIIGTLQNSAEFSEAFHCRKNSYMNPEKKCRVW

[2] = target: T1, insulin degrading enzyme (IDE); assay: Sensitivity towards proteolytic degradation by insulin degrading enzyme (IDE); conditions: 4 hours incubation with 0.6 μg/ml IDE at 37° C., then activity on the rat receptor cell line
human NPRA (hNPRA) = target: T2, human NPRA (hNPRA); assay: cGMP quantification assay (HTRF) on stable hNPRA-CHO k1 cells (rcs, ics, pcs); assay type: cell-based; conditions: for significant activity on hNPRA cells: BNP engrafted constructs, 'in contrast' = not significantly active
Description: All activities shown in Tables 7 and 8 were measured on cells with heterologous over expression of human NPRA (hNPRA) by use of a cGMP quantification assay conducted according to manufacturer's instructions (cisbio; 62GM2PEH). In brief, the assay quantifies cGMP in buffered solution or cell-culture supernatants based on the competition between cGMP produced by the cell as result of the NPRA stimulation through the (natriuretic peptide) sample and d2 labelled cGMP for binding to a Cryptate labelled antibody. Sample cGMP and d2 labeled cGMP compete for binding to a limited number of sites on Cryptate labeled anti-cGMP antibodies, and consequently, HTRF® specific fluorescent signal (i.e. energy transfer) is inversely proportional to the concentration of cGMP in the sample.
Dose-response curve data were analyzed with GraphPad Prism (version 7.00 for Windows, GraphPad Software, La Jolla California USA) and EC50 were fitted according to Y=Bottom+(Top-Bottom)/(1+10^((LogEC50−X)*HillSlope)) applying constraints for bottom, top and slope (shared value for all data sets of the respective experiment).
The raw compound sample activity on stable hNPRA-CHO k1 cells was first assessed by comparison to the negative control TPP-5657 and to a positive sample, in particular TPP-5661. Controls and rcs were tested in quadruplets in two concentrations with a relative dilution factor of 5 aiming for a fluorescent signal (s) in the dynamic range of the assay. […] Values listed in Table 7, columns “activity rcs” and “stdev activity rcs”, represent the average of the results for the two concentrations and the respective standard deviation. Rcs signals less than half of the signal of the reference compound TPP-5661 (36%) were assessed as not active (n.a.).
The activity of several raw compound samples on stable hNPRA-CHO k1 cells was reassessed by comparison to reference sample TPP-5661 in 2.5-fold dilution series (8 concentrations) starting with a 5-fold dilution. The “log EC50” fit value as activity measure of the rcs was set in relation to the corresponding value of the reference rcs TPP-5661 by calculating the delta “log EC50”_compound−“log EC50”_TPP-5661; resulting values are listed in Table 7, column “rel. activity rcs”. […] All samples were applied in quadruplets.
The activity of isolated compound samples on stable hNPRA-CHO k1 cells was assessed by EC50 determination and comparison to reference sample TPP-5661. Samples were tested in 2.5-fold dilution series from 80 nM to 0.13 nM. The log EC50 fit value as activity measure of the ics was set in relation to the corresponding value of the reference ics TPP-5661 (−8.8) by calculating the delta log EC50_compound−log EC50_TPP-5661; resulting values are listed in Table 7, column “rel. log EC50 ics”. All samples were applied in quadruplets.
The activity of purified compound samples on stable hNPRA-CHO k1 cells was assessed in multiple experiments by EC50 determination and comparison to reference sample TPP-5661. Samples were tested in dilution series at least in quadruplets. […] The log EC50 fit value as activity measure of the pcs was set in relation to the corresponding value of the reference TPP-5661 in the respective experiment (in average −9.2, standard deviation 0.5) by calculating the delta log EC50_compound−log EC50_TPP−5661.
Purified compound samples were tested as described in Example 3 in quadruplets in dilution series on stable hNPRA-CHO k1 cells. […]

[3] = Purity of purified compound samples by capillary Gel Electrophoresis under reduced conditions; conditions: reduced conditions
Description: The purity of purified compound samples (Example 5, Table 7, column “% purity pcs”) was determined by capillary Gel Electrophoresis according to manufacturer's instructions (LabChip GX, Caliper Life Sciences) under reduced conditions. The purity in % was calculated as sum of peak areas corresponding to the intact light and heavy chain relative to the sum of all peaks observed.

[4] = Table 9 (excerpt of Table 7), capillary gel electrophoresis, sum of intact light and heavy chain peaks
[5] = purified compound samples, capillary Gel Electrophoresis

| Molecule | significant activity on hNPRA cells (human NPRA (hNPRA); purified compound samples) | % purity pcs [3, 4] | % purity pcs [3, 5] | other results |
| --- | --- | --- | --- | --- |
| B1 |  |  |  | sensitivity towards proteolytic degradation by NEP [1]: high resistance; sensitivity towards proteolytic degradation by IDE [2]: high resistance |
| B2 | significant activity |  |  |  |
| B3 |  | 97% | 97% | activity after compound preparation (pcs) (human NPRA (hNPRA); stable hNPRA-CHO k1 cells, purified compound samples): activity of #61 was shown; activity of raw compound samples (rcs) (human NPRA (hNPRA); stable hNPRA-CHO k1 cells, two concentrations, vs TPP-5657 and TPP-5661): no activity |
| B4 | significant activity |  |  |  |
| B5 |  | 99% | 99% | rel. activity res (human NPRA (hNPRA); rcs, stable hNPRA-CHO k1 cells, relative to TPP-5661, higher concentrations): −0.3 |

From US12390508B2, “Brain natriuretic peptide engrafted antibodies” (Boehringer Ingelheim International GmbH, priority 2018, dated 2025)
